# From article PMC4336329 (PLoS ONE, 2015)
# Hit rate of the full screen: of about 310,000 compounds, about 2,200 (0.71%) showed an effect of 50% or more. The effect is printed as a negative number. The list shows a part of the results.
# Biological target: human ether-à-go-go-related gene (hERG) potassium channel (human, UniProt Q12809)
# Assay: primary screen, population patch clamp on CHO cells stably expressing hERG
# Chain of human ether-à-go-go-related gene (hERG) potassium channel (Q12809 whole entry, looked up): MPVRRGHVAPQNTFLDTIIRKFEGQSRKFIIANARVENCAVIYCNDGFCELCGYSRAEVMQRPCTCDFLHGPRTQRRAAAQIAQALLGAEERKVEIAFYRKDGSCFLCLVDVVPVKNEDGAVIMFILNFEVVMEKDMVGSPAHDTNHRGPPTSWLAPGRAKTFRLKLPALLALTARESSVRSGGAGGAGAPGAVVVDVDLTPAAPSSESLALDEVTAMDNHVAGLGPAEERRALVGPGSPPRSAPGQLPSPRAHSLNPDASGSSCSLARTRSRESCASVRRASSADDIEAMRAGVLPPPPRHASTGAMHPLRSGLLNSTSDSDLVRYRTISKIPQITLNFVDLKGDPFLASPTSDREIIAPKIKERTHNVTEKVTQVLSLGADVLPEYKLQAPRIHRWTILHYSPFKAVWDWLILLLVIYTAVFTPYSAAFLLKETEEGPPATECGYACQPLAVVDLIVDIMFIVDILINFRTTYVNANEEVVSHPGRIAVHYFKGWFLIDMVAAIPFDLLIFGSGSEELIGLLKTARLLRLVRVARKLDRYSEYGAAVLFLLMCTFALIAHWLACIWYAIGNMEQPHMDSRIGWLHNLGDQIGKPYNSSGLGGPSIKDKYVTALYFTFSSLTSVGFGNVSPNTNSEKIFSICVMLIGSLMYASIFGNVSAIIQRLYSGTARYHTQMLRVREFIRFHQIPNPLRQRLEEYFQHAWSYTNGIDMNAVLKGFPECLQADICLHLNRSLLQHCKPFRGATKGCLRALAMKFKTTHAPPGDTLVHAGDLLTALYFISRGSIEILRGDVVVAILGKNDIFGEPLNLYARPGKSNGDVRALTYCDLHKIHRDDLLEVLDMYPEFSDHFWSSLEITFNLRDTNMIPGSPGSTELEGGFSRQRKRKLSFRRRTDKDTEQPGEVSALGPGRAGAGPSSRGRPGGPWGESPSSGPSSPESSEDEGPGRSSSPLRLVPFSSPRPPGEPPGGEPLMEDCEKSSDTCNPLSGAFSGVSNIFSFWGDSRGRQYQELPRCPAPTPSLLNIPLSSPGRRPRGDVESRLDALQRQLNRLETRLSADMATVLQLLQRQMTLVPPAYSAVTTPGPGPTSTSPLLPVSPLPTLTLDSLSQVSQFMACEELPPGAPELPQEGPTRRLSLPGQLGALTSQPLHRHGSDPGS
row,SMILES,"hERG current change (%, negative = inhibition) at 1uM [%]"
1,O=C(NCCCN1CCCC1=O)c1cccc(S(=O)(=O)Nc2ccc(F)cc2)c1,-3.76
2,O=C(Nc1cccc(-c2ccc(N3CCOCC3)nn2)c1)c1ccccc1Cl,30
3,C=C(C)n1c(=O)n(Cc2ccccc2C)c2ccccc21,10.8
4,O=C1Nc2ccc(Br)cc2C1(O)c1ccc(F)cc1 (centres unmarked),12.6
5,O=[N+]([O-])c1cccc(-c2nc(Oc3ccc(Cl)cc3)c3ccccc3n2)c1,10.3
6,O=C(C1=C[C@H](c2csc3ccccc23)C[C@H](OCc2ccc(CO)cc2)O1)N1CCN(Cc2ccc3c(c2)OCO3)CC1,17.3
7,O=C(O)CCCCCNCc1ccncc1,-4.99
8,CCCCNC(=O)Nc1c(C(=O)OCC)[nH]c2ccccc12,7.32
9,C#CCN1C(=O)C(O)(CC(=O)/C=C/c2ccco2)c2ccccc21 (centres unmarked),9.21
10,c1ccc(-c2nnc(SCc3nc4ccccc4[nH]3)n2Cc2ccco2)cc1,3.01
11,O=C(NNC(=S)Nc1ccc(F)cc1)c1cccc([N+](=O)[O-])c1,14.2
12,COc1cc(NC(=O)C/C(C)=N/NC(=O)c2cccc(O)c2)c(OC)cc1Cl,-0.491
13,Cc1ccc(-n2ncc3c2CC(C)(C)CC3NC(=O)c2cc[n+]([O-])cc2)cc1 (centres unmarked),-62.7
14,CCCN(CC1CC1)C(=O)COC(=O)c1oc2ccc(OCC)cc2c1C,2.45
15,O=C(NCC1OCCCN1S(=O)(=O)c1ccc(F)cc1)C(=O)NC1CCCC1 (centres unmarked),-3.88
16,COc1cc(C(C(=O)NC(C)(C)C)N(C(=O)CNC(=O)c2cccs2)c2ccccc2)cc(OC)c1OC (centres unmarked),16
17,CCCSc1nnc(Cc2cc(=O)[nH]c(=O)[nH]2)n1-c1cc(C)ccc1C,10.6
18,Cc1cccc(OCCNc2ccc(C(F)(F)F)cc2[N+](=O)[O-])c1,5.96
19,CCCOc1cccc(C(=O)NCCNC(=O)c2cnccn2)c1,13.9
20,COc1ccc(C(C)=O)cc1CN(c1ccccc1OC)S(=O)(=O)c1cccs1,11.4
21,Cc1cc(C)nc(SCc2cnc(C)nc2N)n1,20.6
22,COc1ccc(OC)c(NC(=O)c2ccc(N3C(=O)C4CC=C(C)CC4C3=O)cc2)c1 (centres unmarked),16.7
23,Cc1nnc(SCc2ccc([N+](=O)[O-])cc2)o1,5.15

row,SMILES,"hERG current change (%, negative = inhibition) at 1uM [%]"
1,C=CCN(c1ccc(C(=O)Nc2cc(C)cc(C)c2)cc1)S(C)(=O)=O,3.91
2,Cc1c(NC(=O)COc2ccc3ccc(=O)oc3c2)c(=O)n(-c2ccccc2)n1C,10.2
3,Cc1c(C(=O)N2CCC(C)CC2)oc2ccc3c(c12)C(O)CC1(CCCCC1)O3 (centres unmarked),16.4
4,COC(=O)Cc1c(C)nc2nc(NCc3cccc([N+](=O)[O-])c3)[nH]n2c1=O,-2.47
5,CCc1ccc(NC2Nc3cc(C)nn3S2)cc1 (centres unmarked),6.72
6,Cc1cccc(C(=O)Nc2cccc(NC(=O)c3ccccc3)c2)c1,5.84
7,N=C1C(c2ccccc2)=C(O)CN1c1cccc(S(=O)(=O)N2CCCCC2)c1,10.2
8,Cc1c(N=Cc2cccnc2)c(=O)n(-c2ccccc2)n1C,9.26
9,COc1cccc(C(=O)N2CCN(c3ncccn3)CC2)c1,12.9
10,COc1ccc(N(CC(=O)Nc2cc(C)ccc2C)S(=O)(=O)c2ccccc2[N+](=O)[O-])c(OC)c1,15.8
11,O=C(CCS(=O)(=O)c1ccccc1)Nc1ccccc1F,11.1
12,Oc1ccccc1-c1cc(C(F)(F)F)nc(-c2ccccc2)n1,13.5
13,COc1ccc(NC(=O)OCCn2c([N+](=O)[O-])cnc2C)cc1,14.3
14,CCOC(=O)CCn1cc(F)c(=O)[nH]c1=O,5.8
15,Cc1nn(Cc2ccccc2Cl)c(C)c1NC(=O)c1nc2ncccn2n1,17.3
16,C=CCc1cccc(Cl)c1OCCON1C(=O)CCC1=O,7.73
17,O=C(CN1CCN(S(=O)(=O)c2ccc3ccccc3c2)CC1)Nc1ccc(N2CCOCC2)cc1,7.82
18,C[C@@H](NC(=O)c1[nH]cnc1C(=O)Nc1ccon1)c1ccccc1,12.7
19,O=C(OCCCN1C(=O)c2ccccc2C1=O)c1ccco1,-0.461
20,CC(C(c1ccc2c(c1)OCO2)c1c(N)n(C)c(=O)n(C)c1=O)[N+](=O)[O-] (centres unmarked),7.38
21,COc1ccccc1N1CCN(S(=O)(=O)c2cnc[nH]2)CC1,10.6
22,C=Cn1cc[n+](CC(=O)c2ccc(OC)c(OC)c2)c1.[Br-],9.38
23,COc1ccc(N2C(=O)C3C(C2=O)C2C=CC3C23CC3)c(OC)c1 (centres unmarked),20.4

row,SMILES,"hERG current change (%, negative = inhibition) at 1uM [%]"
1,CCCCc1ncc(CN2CCN(Cc3ccc(C)cc3)C(CCO)C2)[nH]1 (centres unmarked),-11.8
2,O=C(CSc1ccc(-c2cccc([N+](=O)[O-])c2)nn1)N1CCCC1,-12.9
3,CSc1ccc(S(=O)(=O)NCCOc2ccccc2C)cc1,7.7
4,c1ccc(CSc2ccc(-c3ccccn3)nn2)nc1,12.2
5,Clc1ccc(-c2cnc3ccccc3n2)cc1,10.3
6,Cc1cc(NC(=O)CCN2C(=O)C3C4C=CC(C4)C3C2=O)ccc1Br (centres unmarked),-4.27
7,O=C(CNC(=O)C12CC3CC(CC(C3)C1)C2)OCC(=O)N1CCCCC1,7.18
8,COc1ccc(C(=O)NC2CC2)cc1OC1CCN(Cc2ccc(F)c(F)c2)CC1,-70.2
9,FC(F)(F)c1cnc(-c2cnc(-c3ccccn3)nc2)c(Cl)c1,4.72
10,CCOc1ccc([C@@H]2CC=C(C(=O)O)CN2S(=O)(=O)c2ccc(C)cc2)cc1,6.85
11,CCn1nc(C(=O)OCC(=O)N2CCc3ccccc32)c2ccccc2c1=O,8.09
12,Cc1ccc(C(c2nnnn2C2CCCC2)N2CCc3ccccc32)cc1 (centres unmarked),13.5
13,CC(C)(C)C1CCc2c(sc(NC(=O)c3ccco3)c2C(N)=O)C1 (centres unmarked),14.1
14,CCOC(=O)c1nnn(-c2nonc2-n2cccc2)c1CN1CCC(C(=O)OCC)CC1,0.713
15,CCc1cccc(C)c1NC(=O)CCCN1C(=O)CN(C)C1=O,5.09
16,CC(=O)Nc1ccc2nc(C3CCCCC3)[nH]c2c1,9.15
17,Cc1cc(NC(=O)c2ccc(Cl)cc2Cl)n(CCC#N)n1,8.49
18,Cc1c(Cl)cccc1NC(=O)CCN1CCCCC1,3.01
19,CCCn1cc(S(=O)(=O)c2ccc(F)cc2)c(=O)c2cc(OCC)ccc21,1.86
20,CCC(C)N(C(=O)Cn1nc(C)c([N+](=O)[O-])c1C)C1CCS(=O)(=O)C1 (centres unmarked),9.48
21,COc1ccc(CCNC(=O)c2ccco2)cc1,11.1
22,Cc1ccccc1OCc1nnc(SCC(=O)Nc2ccc(N3CCOCC3)c(Cl)c2)n1C,6.62
23,CCOc1ccc(N2C(=O)CC(N3CCOCC3)C2=O)cc1 (centres unmarked),-2.76

row,SMILES,"hERG current change (%, negative = inhibition) at 1uM [%]"
1,CCCCNC(=O)c1ccc(Cn2c(=S)[nH]c3c([nH]c4ccc(OC)cc43)c2=O)cc1,-18.6
2,COc1cc(C(=O)NNC(=O)COc2ccc(C)cc2)ccc1OCC(=O)N1CCOCC1,6.65
3,Cc1nnc(NC2=NCCCCC2)o1,13.1
4,CN(C)S(=O)(=O)c1cccc(NC(=O)/C=C/c2ccc(S(=O)(=O)N3CCOCC3)cc2)c1,12.6
5,O/N=C(\c1ccc2c(c1)OCCO2)C1CCCCC1,14.8
6,CCOc1cc(NC(=O)c2cccs2)c(OCC)cc1NC(=O)c1ccco1,17.8
7,COc1ccc2nc(N3CCCCC3)c(/C=C3\SC(=S)NC3=O)cc2c1,14.2
8,COc1cccc(OC)c1C(=O)NC(=S)NCc1ccco1,14.7
9,Cn1cccc1Cc1nnc(SCC(N)=O)n1CCc1ccccc1,3.62
10,CN(Cc1c(F)cccc1Cl)C(=O)c1cnc2ccccc2n1,11.1
11,CCc1ccc(C(=O)CSc2nc3ccccc3c(=O)[nH]2)cc1,-9.07
12,CC(=O)CSc1nc(N)c(C#N)c(-c2cccs2)c1C#N,11.2
13,CN(C)CCNC(=O)C(=O)C1C(=O)Nc2ccccc21 (centres unmarked),6.47
14,CCO.Cc1cc(C)n(CCc2nc(-c3ccc(-c4ccccc4)cc3)cs2)n1,2.73
15,CCC(CC)C(=O)NCCCCc1ccccc1,8.32
16,CCOC(=O)c1ccc(NC(=S)N2CCN(Cc3ccccc3)CC2)cc1,6.04
17,CN1CCN(c2ccc(NC(=O)c3ccc(Oc4ccccc4)cc3)cc2)CC1,11.7
18,S=c1[nH]nc(COc2ccc(Cl)cc2)n1-c1ccccc1,12
19,CC1CCCC(C)N1CCCNC(=O)CCn1c(=O)c2cccn2c2cccnc21 (centres unmarked),15
20,COc1ccc(C(=O)CSc2nnc(NC(=O)C3CC(=O)N(c4ccccc4C)C3)s2)cc1 (centres unmarked),14.3
